# Laboratory results reported in article PMC4336329 (PLoS ONE, 2015).
# The campaign covered roughly 310,000 compounds. About 2,200 (0.71%) showed an effect of 50% or more. Effects have a minus sign here. The list shows a part of the results.
# Target: human ether-à-go-go-related gene (hERG) potassium channel (human, UniProt Q12809)
# Test: primary screen, population patch clamp on CHO cells stably expressing hERG
# Sequence of human ether-à-go-go-related gene (hERG) potassium channel (Q12809 whole entry, looked up): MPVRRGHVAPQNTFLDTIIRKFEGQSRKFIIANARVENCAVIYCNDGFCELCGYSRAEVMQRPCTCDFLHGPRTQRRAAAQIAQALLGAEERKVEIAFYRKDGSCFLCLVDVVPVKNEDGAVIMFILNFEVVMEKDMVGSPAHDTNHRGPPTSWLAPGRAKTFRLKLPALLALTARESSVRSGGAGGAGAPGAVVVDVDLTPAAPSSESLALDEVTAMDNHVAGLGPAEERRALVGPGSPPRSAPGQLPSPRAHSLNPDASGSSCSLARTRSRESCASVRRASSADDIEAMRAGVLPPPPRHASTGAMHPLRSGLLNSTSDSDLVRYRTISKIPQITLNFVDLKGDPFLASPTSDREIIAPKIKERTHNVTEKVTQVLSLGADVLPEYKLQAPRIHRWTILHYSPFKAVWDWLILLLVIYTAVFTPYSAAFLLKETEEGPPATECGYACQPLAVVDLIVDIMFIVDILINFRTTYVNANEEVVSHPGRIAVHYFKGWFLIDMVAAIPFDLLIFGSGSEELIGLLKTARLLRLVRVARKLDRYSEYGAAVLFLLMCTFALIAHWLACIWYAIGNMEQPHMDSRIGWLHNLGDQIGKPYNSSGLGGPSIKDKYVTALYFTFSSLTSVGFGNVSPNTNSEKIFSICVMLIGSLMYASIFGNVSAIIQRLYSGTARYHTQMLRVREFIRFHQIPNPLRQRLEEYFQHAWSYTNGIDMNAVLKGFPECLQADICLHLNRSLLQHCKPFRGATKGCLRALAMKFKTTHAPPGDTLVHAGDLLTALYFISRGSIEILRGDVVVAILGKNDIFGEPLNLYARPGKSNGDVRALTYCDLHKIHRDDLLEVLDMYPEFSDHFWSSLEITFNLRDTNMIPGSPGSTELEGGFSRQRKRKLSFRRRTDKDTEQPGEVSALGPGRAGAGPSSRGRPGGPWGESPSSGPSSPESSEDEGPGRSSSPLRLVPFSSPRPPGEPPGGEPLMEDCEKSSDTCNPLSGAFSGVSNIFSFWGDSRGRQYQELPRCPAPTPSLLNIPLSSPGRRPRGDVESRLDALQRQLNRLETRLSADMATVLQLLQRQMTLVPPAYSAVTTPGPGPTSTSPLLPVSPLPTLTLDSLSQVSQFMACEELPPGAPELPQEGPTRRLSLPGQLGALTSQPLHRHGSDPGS
row,SMILES,"hERG current change (%, negative = inhibition) at 1uM [%]"
1,CN(C)/C=C/C(=O)c1cccc(C(F)(F)F)c1,5.24
2,COC(=O)C1CCCN1C(=O)COc1ccc(Cl)cc1Br (centres unmarked),0.568
3,O=C(Nc1ccc(F)c(F)c1)c1cnc(-c2ccccc2)nc1-c1ccccc1,-14.1
4,Cc1ccc(C(C)C)c(OCC(=O)Nc2sc3c(c2C#N)CC(C)(C)NC3(C)C)c1,9.52
5,CCCCc1nc2ccccc2c(=O)n1NC(=O)c1c(O)c2cccc3c2n(c1=O)CC3,3.13
6,O=C(Nc1ccccc1C(=O)O)c1cc(S(=O)(=O)N2CCOCC2)c(Br)s1,16.8
7,CN(Cc1cccs1)S(=O)(=O)c1cccs1,14.7
8,CC(=O)N1N=C(c2cccs2)CC1c1cc2cc(C)ccc2nc1Cl (centres unmarked),9.16
9,COc1ccc(C(=O)Nc2ccc(S(=O)(=O)Nc3cc(C)nc(C)n3)cc2)c(OC)c1,6.48
10,CC(C)N1CCc2[nH]c(=S)[nH]c(=O)c2C1,4.91
11,NC(=O)[C@@H]1CCCNc2c(I)cc([N+](=O)[O-])cc2C(=O)N[C@@H](CO)C(=O)N[C@@H](Cc2ccc(O)cc2)C(=O)N1,19.1
12,NS(=O)(=O)c1ccc(CNC(=S)Nc2ccc(F)c(Cl)c2)cc1,24.1
13,c1csc(-c2ccc3ccccc3n2)c1,11
14,CN(C)c1ccc(NC(=S)c2ccccn2)cc1,17.9
15,Cc1nc(Nc2cccc(Cl)c2)c2oc3ccccc3c2n1.Cl,9.74
16,CCN(CC)S(=O)(=O)c1ccc(C(=O)NCC(=O)N/N=C/c2ccccc2OC)cc1,-3.97
17,Cc1ccc(NC(=O)CCNS(=O)(=O)c2ccc3[nH]c(=O)oc3c2)cc1F,12.7
18,Cc1nc(NC(=O)c2ccc(F)cc2)sc1C(=O)Nc1ccc2c(c1)CCC2,15.5
19,COc1ccc(C(=O)n2nc(C)c(Br)c2C)cc1,15.5

row,SMILES,"hERG current change (%, negative = inhibition) at 1uM [%]"
1,Oc1ccc2ccccc2c1CN1CCN(c2ccccc2)CC1,10.5
2,CCCCCNc1nc(NCCCO)c(C#N)c2c1CN(C)CC2,-46.9
3,CCCn1cc2c(c1-c1cccc(C)c1)c(=O)n(C)c(=O)n2C,7.06
4,CCCCNC(C(=O)Nc1ccc(Cl)c([N+](=O)[O-])c1)c1ccccc1.O=C(O)C(=O)O (centres unmarked),11.5
5,Cc1ccc(S(=O)(=O)N2CCOCC2)cc1C(=O)OC(C)C(=O)NC1CCCC1 (centres unmarked),-0.763
6,Cc1ccc2nc(N3CCC(C(=O)O)CC3)nc(-c3ccccc3)c2c1,14.9
7,CN(C)c1ccc(NC(=O)CSc2nnc(-c3ccco3)c(-c3ccco3)n2)cc1,12.4
8,O=C(CCS(=O)(=O)c1ccc(Cl)cc1)N1CCN(S(=O)(=O)c2cccs2)CC1,5.34
9,CCCCC(=O)Nc1ccccc1CC,-31.3
10,O=C(O)CCn1c(SCCOc2ccccc2)nc2ccccc21,14.1
11,CCCN1C(=O)C2C(C(=O)Nc3cccc(OC)c3)C3C=CC2(O3)C1C(=O)NC1CCCCC1 (centres unmarked),9.65
12,CCSc1nc2c(c(=O)n(C)c(=O)n2C)n1Cc1ccc(Cl)cc1,10.1
13,Cc1ccn2c(=O)nc(SCC(=O)N3CCCc4ccccc43)nc2c1,5.31
14,COc1ccc(C(=O)CSc2nnc(-c3ccc(C)cc3)o2)cc1,4.57
15,CCC(C)NC(=O)c1ccccc1NS(=O)(=O)c1ccc(OC)c(OC)c1 (centres unmarked),11.8
16,CCCn1c2ccccc2c2cnn(CC(=O)NCCN(CC)CC)c(=O)c21,-67
17,NC(=S)N1OC[C@@H]2COc3ccc4ccccc4c3[C@@H]21,8.8
18,O=C(Cn1c(=O)c2sccc2n(Cc2cccc([N+](=O)[O-])c2)c1=O)NCCc1ccccc1,-6.53
19,Cc1ccc(S(=O)(=O)NCCC(=O)Nc2cccc(Cl)c2)cc1,7.91

row,SMILES,"hERG current change (%, negative = inhibition) at 1uM [%]"
1,Cc1noc(C)c1COC(=O)COc1ccc2c(C)cc(=O)oc2c1,-1.18
2,COc1ccc(CC(=O)Nc2ccc(C(=O)O)cc2NC(=O)Cc2ccc(OC)cc2)cc1,9.07
3,COc1ccc(-c2csc(-c3[nH]cnc3N)n2)cc1,4.62
4,CNC(=O)N(O)C1N(c2ccccc2)C(=S)SC1(C)C (centres unmarked),12.2
5,Cc1ccccc1Cn1c2ccccc2c2cnn(CC(=O)NCc3ccccn3)c(=O)c21,11.6
6,Cc1nc2nc(SCC(=O)c3ccccc3)[nH]c2cc1Br,11.1
7,O=C(CCNS(=O)(=O)c1cccc2nsnc12)NCc1cccs1,12.2
8,CCn1cnc2c(oc3ccccc32)c1=O,9.53
9,Cc1cccc(NC(=O)CSc2n[nH]c(-c3ccncc3)n2)c1,4.97
10,COCCNC(=S)N1CCN(Cc2ccc3c(c2)OCO3)CC1,12.7
11,O=C(CCN1C(=O)c2ccccc2C1=O)Nc1cc(F)ccc1F,-3.66
12,COC(=O)c1ccc2c(=O)[nH]c(COC(=O)c3c(-c4ccccc4)noc3C)nc2c1,12.1
13,COc1ccc(C(=O)NNC(=O)C(=O)NCc2ccccc2)cc1,17.5
14,Cc1ccnc(NC(=O)c2cc3ccccc3oc2=O)c1,5.36
15,CCN1CCN(c2cc(C)c3cc(NC(=S)N4CCCC(C)C4)ccc3n2)CC1 (centres unmarked),2.87
16,O=C(COC(=O)c1ccc(Cl)nc1)NNC(=O)c1ccc(Br)cc1,3.23
17,Cc1ccc(C(=O)OCC(=O)NCc2cccs2)cc1S(=O)(=O)N1CCOCC1,11.6
18,Cc1c(C=O)c2ccccc2n1CCOc1ccccc1F,13.9
